The list shows a part of the results. Values were computed here from the reads of four pooled replicates and scatter widely.
Target: T1, Pho4 (S. cerevisiae) (UniProt P07270)
T1 sequence: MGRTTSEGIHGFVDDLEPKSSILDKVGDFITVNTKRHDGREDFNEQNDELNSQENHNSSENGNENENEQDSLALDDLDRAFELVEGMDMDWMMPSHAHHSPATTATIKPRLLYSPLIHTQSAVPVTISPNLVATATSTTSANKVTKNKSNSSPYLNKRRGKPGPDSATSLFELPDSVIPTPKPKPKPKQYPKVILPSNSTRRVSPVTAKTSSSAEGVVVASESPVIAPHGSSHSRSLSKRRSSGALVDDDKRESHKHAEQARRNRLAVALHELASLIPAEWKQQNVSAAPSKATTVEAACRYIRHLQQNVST
Assay: relative binding free energy (BET-seq); higher = weaker binding
Settings: reference: library average

Row | Sequence | relative binding free energy
1 | TCTTGCACGTGTGGAT | 0.04 kcal/mol
2 | AATTTCACGTGAGCTT | 0.29 kcal/mol
3 | ATATACACGTGGTATA | -0.05 kcal/mol
4 | TGGATCACGTGGTGAA | 0.27 kcal/mol
5 | TACCTCACGTGGGTGG | 0.04 kcal/mol
6 | ATAGTCACGTGTAAGG | 0.17 kcal/mol
7 | TATGACACGTGGGGCA | -0.25 kcal/mol
8 | TTGAACACGTGATCGG | 0.12 kcal/mol
9 | ACGTACACGTGTGAGT | 0.12 kcal/mol
10 | GGTCGCACGTGGGGTT | -0.05 kcal/mol
11 | GGAGTCACGTGAAATT | 0.45 kcal/mol
12 | GACGGCACGTGATGGT | 0.16 kcal/mol
13 | CTACTCACGTGGTGGG | 0.11 kcal/mol
14 | AGGGGCACGTGTTAGT | -0.12 kcal/mol
15 | AATGACACGTGTTTTA | 0.12 kcal/mol
16 | TAGGACACGTGGGCGG | -0.01 kcal/mol
17 | TGGGGCACGTGCTCTG | -0.21 kcal/mol
18 | GTTGTCACGTGGATAT | 0.14 kcal/mol
19 | AAAGGCACGTGGTGAG | -0.19 kcal/mol
20 | ATGTTCACGTGGAAGA | 0.38 kcal/mol
21 | TATTACACGTGTTTGG | 0.15 kcal/mol
22 | ATTCTCACGTGTGTTT | 0.34 kcal/mol
23 | TATTCCACGTGGGTTT | -0.09 kcal/mol

Row | Sequence | relative binding free energy
24 | GTGAGCACGTGAATGA | 0.41 kcal/mol
25 | CTTGGCACGTGTCATG | 0.01 kcal/mol
26 | TGGTACACGTGTAGTG | 0.12 kcal/mol
27 | CCTATCACGTGGTTGG | 0.21 kcal/mol
28 | ATTAGCACGTGCTAGT | -0.2 kcal/mol
29 | TTGGACACGTGGTATT | -0.03 kcal/mol
30 | TGTGACACGTGGATGG | 0.12 kcal/mol
31 | TGTGGCACGTGTTATA | -0.12 kcal/mol
32 | GACGTCACGTGAGGGG | 0.31 kcal/mol
33 | TTTCTCACGTGTTCGA | 0.31 kcal/mol
34 | GTATGCACGTGAAGCT | 0.3 kcal/mol
35 | GGGATCACGTGCGTGT | 0.1 kcal/mol
36 | GTAGGCACGTGATGGT | 0.09 kcal/mol
37 | ACGATCACGTGGTGGT | 0.02 kcal/mol
38 | GTTTCCACGTGGTGTC | 0.09 kcal/mol
39 | ATTTGCACGTGGGAAG | -0.05 kcal/mol
40 | TGCTTCACGTGAGGCT | 0.33 kcal/mol
41 | GTTGGCACGTGGAGGA | 0 kcal/mol
42 | GTTTGCACGTGGTAAC | 0.15 kcal/mol
43 | TACGGCACGTGGTGTT | -0.07 kcal/mol
44 | TACTTCACGTGCTGTG | 0.29 kcal/mol
45 | GCATTCACGTGTATTG | 0.24 kcal/mol
46 | GTGGGCACGTGATGTT | 0.05 kcal/mol

Row | Sequence | relative binding free energy
47 | TCTTCCACGTGTTTGG | 0.2 kcal/mol
48 | GTTTCCACGTGGGGTC | -0.02 kcal/mol
49 | TAAGGCACGTGGTAGC | -0.1 kcal/mol
50 | TGGGGCACGTGCGGAC | -0.15 kcal/mol
51 | TTTTGCACGTGTTAGG | 0.1 kcal/mol
52 | TGGCTCACGTGGTATG | 0.13 kcal/mol
53 | GTTGGCACGTGTAGCA | -0.06 kcal/mol
54 | ATAGTCACGTGATGTT | 0.2 kcal/mol
55 | TGTTTCACGTGTGGTT | 0.34 kcal/mol
56 | AGTTCCACGTGTTTTT | -0.07 kcal/mol
57 | GGTAGCACGTGTTCGT | 0 kcal/mol
58 | TAGGTCACGTGTGCTA | 0.08 kcal/mol
59 | GTATTCACGTGGAGGA | 0.06 kcal/mol
60 | ATTGCCACGTGGGAGG | -0.19 kcal/mol
61 | TGTTTCACGTGTCCGG | 0.37 kcal/mol
62 | GTTGACACGTGGCGGT | 0.02 kcal/mol
63 | TAGGTCACGTGTTGCG | 0.08 kcal/mol
64 | GTCATCACGTGTTGGT | 0.27 kcal/mol
65 | ATGCGCACGTGACAGT | 0.11 kcal/mol
66 | AGTTACACGTGGAGAG | 0.02 kcal/mol
67 | GGTAGCACGTGTTGAA | -0.05 kcal/mol
68 | AGATACACGTGTGGTC | 0.03 kcal/mol
69 | GACATCACGTGTTTGG | 0.22 kcal/mol

Row | Sequence | relative binding free energy
70 | TGTAGCACGTGGAGAG | -0.18 kcal/mol
71 | GGCTTCACGTGTTGGG | 0.49 kcal/mol
72 | GTTGTCACGTGTAATC | 0.11 kcal/mol
73 | AAAATCACGTGGGTGT | 0.08 kcal/mol
74 | GATTACACGTGGGGGG | 0.03 kcal/mol
75 | GAGTGCACGTGTGAAG | 0.28 kcal/mol
76 | ATTAGCACGTGGGGCT | -0.26 kcal/mol
77 | GGTGTCACGTGGTGAT | 0.15 kcal/mol
78 | TATGGCACGTGATGTT | 0.02 kcal/mol
79 | ATGGTCACGTGACGCG | 0.21 kcal/mol
80 | GTGGGCACGTGAGCGA | 0.04 kcal/mol
81 | TATTCCACGTGCATGT | 0.16 kcal/mol
82 | TGACGCACGTGAGTGG | -0.07 kcal/mol
83 | TATTTCACGTGAATGT | 0.24 kcal/mol
84 | TTAGTCACGTGAACTT | 0.25 kcal/mol
85 | TGTTTCACGTGTAGTA | 0.24 kcal/mol
86 | TTGGCCACGTGTTTGT | -0.04 kcal/mol
87 | TGGTACACGTGTATGC | 0.06 kcal/mol
88 | GGGGTCACGTGCGAAT | 0.11 kcal/mol
89 | GTTTGCACGTGGGCAA | -0.07 kcal/mol
90 | TTGGGCACGTGGGAAG | -0.13 kcal/mol
91 | TTCATCACGTGCATTT | 0.24 kcal/mol
92 | GGGATCACGTGTAAGA | 0.31 kcal/mol

Row | Sequence | relative binding free energy
93 | TCGGGCACGTGGGCGA | -0.21 kcal/mol
94 | GAGCGCACGTGAGAGG | 0.19 kcal/mol
95 | TTCGGCACGTGTAGGC | -0.1 kcal/mol
96 | TTGCTCACGTGTTATT | 0.18 kcal/mol
97 | CGGGCCACGTGAGTGT | 0.02 kcal/mol
98 | ATAAGCACGTGCTGGG | -0.02 kcal/mol
99 | CACGTCACGTGGGTGG | -0.02 kcal/mol
100 | CGGTTCACGTGTATCG | 0.4 kcal/mol
101 | AATTGCACGTGTAGAT | 0.24 kcal/mol
102 | GTGAACACGTGGAGGC | 0.14 kcal/mol
103 | CGCGGCACGTGGGGAT | -0.26 kcal/mol
104 | GTTTCCACGTGTTGTC | 0.19 kcal/mol
105 | TAGGGCACGTGAGAAA | 0.14 kcal/mol
106 | AGGTGCACGTGAGTAA | 0.09 kcal/mol
107 | TTGTTCACGTGGTGGA | 0.25 kcal/mol
108 | GTACCCACGTGGGGGG | -0.13 kcal/mol
109 | GGGAACACGTGGGATG | -0.11 kcal/mol
110 | GTGGGCACGTGTGGTT | 0.08 kcal/mol
111 | TTAGACACGTGTGTTT | 0.05 kcal/mol
112 | GGGATCACGTGAATTT | 0.54 kcal/mol
113 | GGATGCACGTGGGAGT | -0.1 kcal/mol
114 | CAGTTCACGTGTGTTG | 0.16 kcal/mol
115 | GGGTCCACGTGGGGAC | -0.01 kcal/mol
